Source: PubChem BioAssay AID2202238 (Ras Initiative Chemistry Research Team, Frederick National …, 2025)
Some of the results follow. The main result of the screen is listed elsewhere. These columns were measured beside it and carry no call.

Biological target: GTPase KRas (Homo sapiens) (UniProt P01116)
Experiment: Cysteine mutants labelled by reactive fragments (mass read-out) (AID 2202238)
Parameters: protein at 5 µM with 500 µM competing thiol for 1.5 h
Conditions: KRAS G12D cysteine mutants, disulfide tethering, MALDI-TOF labeling, stronger effect = higher value, fragment at 500 µM
[1] = measured here: G75C mutant labeling
[2] = measured here: H94C mutant labeling
[3] = measured here: I36C mutant labeling
[4] = measured here: L120C mutant labeling
[5] = measured here: M67C mutant labeling
[6] = measured here: M72C mutant labeling
[7] = measured here: N86C mutant labeling
[8] = measured here: P121C mutant labeling
[9] = measured here: S122C mutant labeling
[10] = measured here: S136C mutant labeling
[11] = measured here: G60C mutant labeling
[12] = measured here: N26C mutant labeling

Sequence of UniProt P01116 (P01116 whole entry, looked up, the tested form may be a part): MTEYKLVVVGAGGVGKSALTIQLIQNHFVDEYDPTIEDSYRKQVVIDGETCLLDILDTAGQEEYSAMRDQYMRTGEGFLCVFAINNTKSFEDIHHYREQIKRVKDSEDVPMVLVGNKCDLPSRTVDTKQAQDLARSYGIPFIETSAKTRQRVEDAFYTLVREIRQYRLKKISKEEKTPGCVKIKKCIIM

Row | Compound | percent labeling [1] [%] | percent labeling [2] [%] | percent labeling [3] [%] | percent labeling [4] [%] | percent labeling [5] [%] | percent labeling [6] [%] | percent labeling [7] [%] | percent labeling [8] [%] | percent labeling [9] [%] | percent labeling [10] [%] | percent labeling [11] [%] | percent labeling [12] [%]
1 | O=C(CCS)NCCC1(O)C(=O)Nc2ccccc21 (stereo not drawn) | 11 | 35.8 | 42.1 | 41.2 | 44.1 | 19.4 | 26.1 | 33.7 | 37.6 | 59.9 | – | –
2 | O=C(CCS)N1CCC(COc2ccc(C(F)(F)F)cn2)CC1 | 13.8 | 18.8 | 14.3 | 15.6 | 18.6 | 27.3 | 15.3 | 15.6 | 11.3 | 29.5 | – | –
3 | O=C(CCS)NCC(=O)N1CCOc2ccccc21 | 11.8 | 33.9 | 29.8 | 49.2 | 36.1 | 33.3 | 20.9 | 38 | 40.2 | 61.4 | – | –
4 | O=C(CCS)NC1CCN(c2ccc(Cl)c(Cl)c2)C1=O (stereo not drawn) | 4.8 | 13.6 | 15 | 14 | 25.4 | 22.4 | 14.9 | 10.8 | 7.4 | 23.4 | – | –
5 | O=C(CCS)Nc1nc2ccc3scnc3c2s1 | 4.8 | 5.5 | 11.8 | 11.2 | 11.6 | 21.9 | 3.4 | 7.2 | 6.5 | 9.9 | – | –
6 | CC1Oc2c(cccc2C(=O)NCCS)NC1=O (stereo not drawn) | 26 | 49 | 19.2 | 33.6 | 36.2 | 65.3 | 22.9 | 21.6 | 22.4 | 53.1 | 33 | 41.6
7 | O=C(NCCS)C1COc2ccc(F)cc2C1 (stereo not drawn) | 11.2 | 15.4 | 10.4 | 20.7 | 13.4 | 25.3 | 13.1 | 15.7 | 11.9 | 21.1 | 31.8 | 27.1
8 | O=C(NCCS)c1nnn(-c2cccc(Br)c2)c1C(F)(F)F | 16.8 | 6.8 | 4 | 7.3 | 5.6 | 50.3 | 5.1 | 6.8 | 4.1 | 5.9 | 16.7 | 18.2
9 | COc1cccc(-c2nc(C(=O)NCCS)c(C)[nH]2)c1 | 21.4 | 30.5 | 7.5 | 44.8 | 14.4 | 32.5 | 15.1 | 34 | 11.8 | 25.9 | 38.6 | 43.2
10 | O=C(Cc1cc2[nH]cnc2cc1Br)NCCS | 36.1 | 40.7 | 38 | 55.3 | 43.5 | 62.7 | 47.1 | 36.3 | 29.2 | 48.7 | 63.9 | 48.2
11 | O=C(NCCS)c1coc(C#Cc2ccccc2)c1 | 6.6 | 12 | 8.4 | 15.7 | 9.7 | 30.4 | 9.3 | 11.4 | 9.3 | 12 | 17.4 | 8.8
12 | Cc1c(C(=O)NCCS)nnn1-c1ccc2c(c1)OCCO2 | 16.4 | 20 | 12.4 | 16.7 | 13.4 | 46.8 | 12.7 | 18.2 | 12.3 | 16.3 | 28.2 | 30.6
13 | Cc1nc(C(=O)NCCS)nn1-c1ccc(Cl)cc1 | 11.3 | 14.6 | 10.5 | 22.1 | 11.9 | 20.2 | 15.3 | 14.1 | 10 | 15.7 | 17.2 | 30
14 | Cc1ccc(N2CCCC2)cc1NC(=O)CCS | 0 | 6 | 7.8 | 3.6 | 1.8 | 3.6 | 0 | 2.2 | 7.6 | 10 | – | –
15 | Cc1cc(C)nc(-n2[nH]c(C(=O)NCCS)c(CCO)c2=O)n1 | 0 | 8 | 6.8 | 23.3 | 9 | 0 | 4.5 | 11.8 | 16.3 | 18.9 | 9 | 17.3
16 | Cn1c(=O)n(C)c2cc(C(=O)NCCS)c(Br)cc21 | 17.5 | 28.4 | 23.9 | 23.4 | 28.1 | 53.3 | 21.6 | 18.4 | 15.2 | 44.1 | 44.8 | 57.8
17 | CN(C)C(C(=O)NCCS)c1cc(Br)cs1 (stereo not drawn) | 29.6 | 44.1 | 30.1 | 50.5 | 44.6 | 29.3 | 26.8 | 28.9 | 26 | 53.3 | 57.9 | 45.5
18 | Cc1nn(C2CCS(=O)(=O)C2)c(C)c1NC(=O)CCS (stereo not drawn) | 8.7 | 39.1 | 39.3 | 31.7 | 42.9 | 16.8 | 21.5 | 34.5 | 31 | 49.9 | – | –
19 | O=C(NCCS)c1cccc(Oc2ccc(Cl)cc2)c1 | 12.5 | 21.3 | 11 | 23.6 | 12.9 | 36.1 | 13.5 | 12.8 | 7.4 | 13.9 | 51.5 | 30.2
20 | CC(C)C1N(C(=O)CCS)CC12CCS(=O)(=O)CC2 (stereo not drawn) | 13.5 | 39.5 | 41.3 | 24 | 43.4 | 18.2 | 25.7 | 36 | 35.9 | 49.6 | – | –
21 | Cc1c(C(=O)NCCS)sc2ncn(C)c(=O)c12 | 32.8 | 32 | 26.8 | 37.2 | 41.7 | 73.7 | 36.2 | 27.7 | 29.9 | 53.6 | 45.8 | 52.4
22 | O=C(NCCS)c1c(C(F)(F)F)nc2ccccn12 | 28.7 | 39.2 | 33.1 | 38.6 | 36 | 50 | 38.2 | 35.1 | 35.9 | 53.1 | 47.8 | 46
23 | O=C(CCS)Nc1ccc(-c2nnc3n2CCC3)cc1 | 16.9 | 23.1 | 23.1 | 23.2 | 22.5 | 43.9 | 23.3 | 18.8 | 20 | 28.3 | – | –
